Key:
[1] = Stability of OSC-GCDIs in phosphate buffers; format: physicochemical; conditions: sodium phosphate buffer
[2] = Stability of OSC-GCDIs and GOC release in BALB/c serum; format: in vitro ADME; conditions: mouse, 200 μM prodrug, 37 °C
Description: (§1) Stability of OSC-GCDIs in serum
Stability of the GCDI prodrugs were examined by incubating prodrugs in human and BALB/c serum at 37 °C and 200 μM final concentration. Briefly, each prodrug was dissolved in DMSO to be 20 mM concentration, then 10 μL of each prodrug solution was mixed with 990 μL of serum. At different time intervals, 100 μL of the samples were taken and mixed with 100 μL of MeCN. Samples were centrifuged at 14,000 rpm for 10 min at 4 °C and the supernatant was immediately frozen (−80 °C). After thawing and shaking, the samples were filtered using a polytetrafluoroethylene (PTFE) filter (0.20 μm pore size) […]
Release profiles of GOC from the OSC -GCDI prodrugs conjugated to human serum albumin OSC-GCDIs were dissolved in Dulbecco ’s Phosphate-Buffered Saline (DPBS) containing HSA (20 mg/mL) to be concentration of 1 mM, then the mixture was shaken for 10 min at 37 °C. Unbound OSC-GCDIs were removed by washing twice with DPBS using Vivaspin 500 ultrafiltration units (10 kDa cutoff).
Following centrifugation, the samples were redissolved in 1 mL DPBS. Before incubation at 37 °C, 50 µL sample was taken and mixed with 50 µL of 1 M KOH in m ethanol solution to completely hydrolyze the conjugates and determine the initial drug concentration bound to HSA. […] Then, the concentration of the released GOC was quantified by HPLC. […]

[3] = Stability of OSC-GCDIs in human serum; format: in vitro ADME; conditions: 200 μM prodrug, 37 °C
Description: as §1
Stability of the GCDI prodrugs were examined by incubating prodrugs in human and BALB/c serum at 37 °C and 200 μM final concentration. Briefly, each prodrug was dissolved in DMSO to be 20 mM concentration, then 10 μL of each prodrug solution was mixed with 990 μL of serum. At different time intervals, 100 μL of the samples were taken and mixed with 100 μL of MeCN. Samples were centrifuged at 14,000 rpm for 10 min at 4 °C and the supernatant was immediately frozen (−80 °C). After thawing

B/Lee/1940 (Lee) = assay: microbe, parasite or virus in culture; conditions: Influenza B virus, MDCK
[4] = pH 6.5, phosphate buffer pH 6.5, 37 °C
[5] = pH 7.4, phosphate buffer pH 7.4, 37 °C
[6] = pH 8, phosphate buffer pH 8.0, 37 °C

SMILES | half-life at 100 μM [1, 4] [min] | half-life at 100 μM [1, 5] [min] | half-life at 100 μM [1, 6] [min] | half-life at 200 μM [2] [min] | half-life at 200 μM [3] [min] | half-life at 100 μM ([1]; pH 2, phosphate buffer pH 2.0, 37 °C) [min] | EC50 (B/Lee/1940 (Lee)) [µM]
CCC(CC)O[C@@H]1C=C(C(=O)O)C[C@H](N=C(N2C(=O)CCC2=O)N2C(=O)CCC2=O)[C@H]1NC(C)=O [OSC-GCDI(S)] | 770 | 102 | 42 | 17.5 | 16.7 |  | 
CCC(CC)O[C@@H]1C=C(C(=O)O)C[C@H](N=C(N2C(=O)CC(C)C2=O)N2C(=O)CC(C)C2=O)[C@H]1NC(C)=O (stereo partly drawn) [OSC-GCDI(M)] | 866 | 108 | 39.5 | 13.5 | 18.4 | > 1440 | 
CCC(CC)O[C@@H]1C=C(C(=O)O)C[C@H](N=C(N2C(=O)[C@H]3CC=CC[C@H]3C2=O)N2C(=O)[C@H]3CC=CC[C@H]3C2=O)[C@H]1NC(C)=O [OSC-GCDI(Ce)] |  |  |  |  |  |  | 12 ± 4.85
